Source: PubChem BioAssay (NCI)
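Test compounds were applied to cells in 96-well plates for 48 hours at 5 doses. Here, GI50 denotes the concentration required for 50% inhibition of growth. Definition used: TGI = concentration required for complete inhibition of growth.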

Test system: NCI-H322M lung
Assay: NCI-60 cell line screen, 48 h

| SMILES | TGI | GI50 |
| --- | --- | --- |
| COc1ccc(Nc2[nH]c(C(C)=O)c(N)c2C(=S)Nc2ccccc2)cc1 | > 100 µM |  |
| CCOC(=O)CC1=Nc2ccccc2SC1 | 5.86 µM |  |
| COc1ccc(C(=S)N2CCN(c3cccc(Cl)c3)CC2)cc1 | > 100 µM | > 100 µM |
| O=c1c2ccccc2[nH]c(=S)n1-c1ccc(N=Nc2cccc3c(O)cccc23)cc1 | > 100 µM |  |
| COc1cccc(/C=C/C(=O)c2cc3c(N)c(C(=O)Nc4ccccc4C)sc3nc2C)c1 | 10.9 µM | 1.93 µM |
| COC(=O)C(C#N)=C1c2ccccc2Oc2ccccc21 | > 100 µM |  |
| C=C1C(=O)O[C@H]2[C@H]1CC/C(CNC(=O)c1c[nH]c3ccc(F)cc13)=C\CC[C@@]1(C)O[C@@H]21 | 22.7 µM | 10.3 µM |
| COc1ccc2nc(-c3ccc(OCc4ccccc4)cc3)ccc2c1 | > 100 µM |  |
| c1cc(-c2cnc(-c3ccc4c(c3)CCCO4)o2)ccn1 | 54.1 µM |  |
| CCOc1ccc(N/C(=C(/C(Cl)=C(/Cl)NCCN)[N+](=O)[O-])n2nnc3ccccc32)cc1 | > 100 µM |  |
| O=C1NC2(CCCC2)C(=O)C12CCCC2 | > 100 µM |  |
| O=C1CC2(C[C@@H]3CCCCCCCCC[C@@H](C3)C2)N1 (some centres not stated) | 31.4 µM |  |
| c1cc2nnc1SCCSCCSc1ccc(nn1)SCCSCCS2 | > 100 µM |  |
| N/C(CC(=O)Nc1cc(C(F)(F)F)ccc1Cl)=N\O | > 100 µM |  |
| Cc1cn(C2C=CC(COP(=O)(OCC3=CC(=O)c4ccccc4C3=O)N(C)CCCCCl)O2)c(=O)[nH]c1=O (configuration not stated) | 21.1 µM |  |
| N#Cc1c(NC(=S)NC(=O)c2ccccc2)nc2c(c1-c1ccccc1)CCC2 | > 100 µM |  |
| CCCCc1c(O)nc(Nc2nc3ccccc3[nH]2)[nH]c1=O | > 100 µM |  |
| CC(=O)C(CN1CCCCC1)C(c1ccccc1)c1c(O)c2ccccc2oc1=O (configuration not stated) | > 100 µM |  |
| O=C(NS(=O)(=O)Nc1ccc(Cl)cc1)OCc1ccc(Cl)cc1Cl | 55.6 µM |  |
| COc1ccc(-c2c(C#N)c(N)n(C3OC(CO)C(O)C(O)C3O)c(=S)c2C#N)cc1 (configuration not stated) | > 100 µM |  |
| CC(=O)NC1C(OCc2ccccc2)OC(CO)C(O)C1OCC(=O)N[C@@H](C)C(=O)N[C@H](CCC(=O)NCCNCCNc1c2ccccc2nc2cccc([N+](=O)[O-])c12)C(N)=O (some centres not stated) | > 100 µM |  |
| CCN(CC)CCOC(c1cc(OC)ccc1OC)c1ccc2n1-c1ccccc1OC2 (configuration not stated) | 31.2 µM |  |
| C[C@@H]1CC[C@H]2C(COCC3=C(C(F)(F)F)O[C@@H]4O[C@@]5(C)CC[C@H]6[C@H](C)CC[C@@H]3[C@@]46OO5)=C(C(F)(F)F)O[C@@H]3O[C@@]4(C)CC[C@@H]1[C@]32OO4 | > 100 µM | > 100 µM |

| SMILES | TGI | GI50 |
| --- | --- | --- |
| Nc1nc2ncc(SCc3ccc(C(=O)NC(CCC(=O)O)C(=O)O)cc3)cc2c(=O)[nH]1 (configuration not stated) | > 100 µM |  |
| COc1c(C2CC(=O)Nc3c2cnn3Cc2ccco2)cc2c(c1OC)OCO2 (configuration not stated) | > 100 µM | 0.524 µM |
| Cc1nn(-c2ccc(F)cc2)c2ncnc(Nc3ccc(NC(=O)Nc4ccc(Cl)c(C(F)(F)F)c4)cc3)c12 | 13.3 µM | 2.64 µM |
| CCCCCCCCCCCCCC(=S)NCCCC[C@H](NC(=O)OCc1ccccc1)C(=O)Nc1ccccc1 | > 100 µM | > 100 µM |
| CC[C@@H]1CC[C@@H]2[C@H](CC[C@]3(C)[C@@H](O)CC[C@@H]23)[C@H]1C(=O)O | > 100 µM |  |
| C1COCCN1.C1COCCN1.N.N.[Cl-].[Pt+2] | > 100 µM | 2.84 µM |
| CN=C(N)N/N=C(\c1ccccc1)c1ccc(Br)cc1 | 11.9 µM | 0.626 µM |
| CC(C)CC(N)C(=O)OCN1C(=O)C2C3C=CC(C2C1=O)C1C2C(=O)N(COC(=O)C(N)CC(C)C)C(=O)C2C31 (configuration not stated) | > 100 µM |  |
| COc1ccc(/C(=C/n2ccnc2)C(=O)c2ccc(OC)c(OC)c2)cc1 | > 100 µM |  |
| CN1CCN(Cc2ccc(C(=O)Nc3cncc(C#Cc4cnc(N)c5ccccc45)c3)cc2C(F)(F)F)CC1 | 13.9 µM | 3.73 µM |
| CC(=O)OC1=C2CC3(C)OC(=O)CC(C)(C)C3=CC=C2C=C(C(C)C)C1=O (configuration not stated) | 3.1 µM |  |
| N#Cc1c(NC(=O)c2cccc(C(F)(F)F)c2)sc2c1CCC(=O)C2 | > 100 µM | 2.99 µM |
| O=C(Cc1nc2ccc(C(=O)c3ccccc3)cc2[nH]c1=O)C(=O)Nc1ccc(Br)cc1 | > 100 µM |  |
| COc1ccc(Nc2c(C#N)c3n(c4ccccc24)c2ccccc2[n+]3C)cc1OC | 12.2 µM |  |
| CCN1CCN(c2nc(NCCCNc3ccnc4cc(Cl)ccc34)c3ccccc3n2)CC1 | 7.89 µM | 2.15 µM |
| C#CCNC(=O)NC(CCCNC(=O)OCc1ccccc1)C(=O)OCc1ccccc1 (configuration not stated) | > 100 µM |  |
| COC(=O)C1=C(C(=O)OC)C2OC1C1C2C2(C)C(C)=C(C)C1(C)S2=O (configuration not stated) | > 53.8 µM |  |
| CCCN=C1CC(C)Nc2ccccc2N1 (configuration not stated) | > 100 µM |  |
| Clc1cc(N/N=C(/c2ccccc2)c2ncccn2)ncn1 | 88.4 µM |  |
| COc1ccc(C2C(Cl)C(=O)N2NC(=O)c2ccc(NC(C)=O)cc2)cc1 (configuration not stated) | > 100 µM |  |
| C=C1CCC2C(/C=C(\C)CCC1O)OC(=O)C2C (configuration not stated) | > 100 µM | > 100 µM |
| CC(C)(C)C(=O)C(CC(=O)c1ccccc1)C(=O)C(C)(C)C | > 100 µM |  |
| C=CC(=O)N[C@H]1C=C(C)c2c(-c3cnc4ccccc4c3)c3c(N)ncnc3n2C1 | 22.9 µM | 0.162 µM |

| SMILES | TGI | GI50 |
| --- | --- | --- |
| O=C(c1ccc2ccccc2c1)c1c(C(F)(F)F)n([O-])c2cc(Cl)c(Cl)cc2[n+]1=O | 4.03 µM | 1.84 µM |
| CCOC(=O)CCC(NC(=O)c1ccc(OCc2nc3cc(C(F)(F)F)ccc3nc2-c2ccccc2)cc1)C(=O)OCC (configuration not stated) | > 100 µM |  |
| COc1cc2c(cc1OCCCCCOc1cc3c(cc1OC)C(=O)N1CCC[C@H]1C(=O)N3)N=C[C@@H]1CCCN1C2=O | 0.884 µM |  |
| Nc1nc(Cl)cc(NCC2(CO)CC(CCc3ccccc3)C2)n1 (configuration not stated) | > 100 µM |  |
| O=C1CC(O)c2c1csc2Br (configuration not stated) | > 100 µM |  |
| COc1ncc(C=C(C#N)C#N)c(OC)n1 | > 100 µM |  |
| O=C(Nc1cccc(-n2ccc3c(NC(=O)c4ccccc4)nccc32)c1)c1cccc(C(F)(F)F)c1 | > 100 µM | 0.222 µM |
| Cc1cn(C2CC(N)C(CN)O2)c(=O)[nH]c1=O (configuration not stated) | > 100 µM |  |
| Cn1cc(NC(=O)c2cc(NC(=O)CCCCCCCCCCC(=O)Nc3cc(C(=O)Nc4cc(C(=O)NCCC(=N)N)n(C)c4)n(C)c3)cn2C)cc1C(=O)NCCC(=N)N | 86.8 µM |  |
| CO[C@@H](C(=O)OC1C=CC2(CC1)C(=O)N(C)c1ccccc12)c1ccccc1 (some centres not stated) | > 100 µM |  |
| COc1ccc(/C=C/C=C(/C#N)C(N)=S)cc1 | > 100 µM | 48.4 µM |
| COc1ccc(N2C(=O)C3c4[nH]c5ccc([N+](=O)[O-])cc5c4C4CCC(C(C)(C)C)CC4C3C2=O)cc1 (configuration not stated) | > 100 µM |  |
| c1ccc(C[P+]2(c3ccccc3)c3ccccc3-c3ccccc32)cc1 | > 100 µM |  |
| COc1cc2ncn(-c3cc(OCc4ccccc4Cl)c(C(N)=O)s3)c2cc1OC | > 21.5 µM | 0.698 µM |
| [N-]=[N+]=Nc1c(Cl)c(=O)n(-c2ccccc2)c2ccccc12 | 61.6 µM |  |
| COc1cc(-n2cc(-c3ccc(Cl)c(Cl)c3)nc2SCc2ccccc2)cc(OC)c1OC | > 100 µM | > 100 µM |
| Cc1ccc(N=Nc2c3c(c(O)c4ccccc24)CCC(C)(C)O3)cc1 | 31.6 µM |  |
| CCCCCCCCCC[C@@H](O)[C@H]1CC[C@H]([C@H]2CC[C@H]([C@H](O)CCCCCCCCCC[C@@H]3CC(CC(C)=O)C(=O)O3)O2)O1 (some centres not stated) | > 50 µM |  |
| CCOC(=O)C(OCC1CC=CCC1)Sc1ccccc1 (configuration not stated) | > 100 µM |  |
| CCn1c(-c2nonc2N)nc2c(C#CCN)ncc(OCCCN)c21 | > 25 µM | > 25 µM |
| O=C1CC(c2ccco2)C2(C(=O)NC(=O)NC2=O)C(c2ccco2)C1 (configuration not stated) | > 75 µM |  |
